Laboratory results: the BET-seq Pho4 binding data (Le et al. 2018)
The other results are listed elsewhere or left out. These are noisy estimates, calculated here from bound and input reads.

target: T1, Pho4 (S. cerevisiae) (UniProt P07270); test: relative binding free energy (BET-seq); higher = weaker binding; conditions: reference: library average
T1 sequence: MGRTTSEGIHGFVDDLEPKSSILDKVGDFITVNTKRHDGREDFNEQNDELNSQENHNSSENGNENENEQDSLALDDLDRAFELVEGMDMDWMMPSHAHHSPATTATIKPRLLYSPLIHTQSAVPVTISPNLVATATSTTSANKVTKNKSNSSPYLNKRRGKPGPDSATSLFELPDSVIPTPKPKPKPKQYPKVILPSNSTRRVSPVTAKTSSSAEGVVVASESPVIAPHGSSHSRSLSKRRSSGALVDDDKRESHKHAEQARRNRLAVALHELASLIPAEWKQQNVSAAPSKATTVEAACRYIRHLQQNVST

Sequence | relative binding free energy [kcal/mol]
TGGGACACGTGGGTGG | -0.02
TTTGACACGTGTCATA | -0.03
AATATCACGTGTGAAG | 0.24
GCGGGCACGTGCAGTG | -0.08
TTGATCACGTGGGTGA | 0.09
ATGGGCACGTGGTGAA | -0.03
TCCGGCACGTGGGATT | -0.09
GCGAGCACGTGTTGGG | -0.04
AAATTCACGTGAAATT | 0.47
TTATGCACGTGGTTCG | -0.04
TTATACACGTGCGTTG | 0.04
GAGGGCACGTGGCGGG | -0.1
AGTGGCACGTGCTGGT | -0.19
ATAGGCACGTGGGATT | -0.18
TGTGGCACGTGAAGAG | 0.18
TCGGGCACGTGCAGGT | -0.13
GGGTACACGTGGATAG | -0.06
GTATTCACGTGGTGGC | 0.3
CCTTTCACGTGTGGGT | 0.42
AAGTGCACGTGTGTAG | -0.02
GTATTCACGTGACGTG | 0.48
AGGGGCACGTGTCGTG | -0.05
AGCGGCACGTGATGTT | -0.01

Sequence | relative binding free energy [kcal/mol]
CTAGGCACGTGGGGCG | -0.27
GTTAACACGTGGGGAT | -0.13
CGTGACACGTGTTCGT | 0.06
ATTGGCACGTGTGCTA | -0.06
TTGATCACGTGGGACA | -0.01
GTGGTCACGTGTTGCC | 0.15
GGAGCCACGTGAAGGG | 0.23
TGAATCACGTGAGTTA | 0.28
GAAGTCACGTGGTACT | 0.19
CAGGGCACGTGTGAAG | -0.02
TGTGTCACGTGTGAAC | 0.08
ATGAGCACGTGAAGTA | 0.27
TAAAGCACGTGATAGG | 0.02
CATGTCACGTGGCGTT | 0.06
TCGTTCACGTGAGGCG | 0.42
TTGGCCACGTGGCGAG | -0.13
TTAGTCACGTGCTATT | -0.1
ATTTGCACGTGTACGT | 0.2
TAGCTCACGTGTTGCG | 0.24
TATTCCACGTGGCTGT | 0.12
TGCTTCACGTGGGTCT | 0
GCGGCCACGTGGGAGG | -0.19
TGGTTCACGTGAGGGA | 0.39

Sequence | relative binding free energy [kcal/mol]
TTTGACACGTGGATTG | 0.02
TGTGACACGTGCAGCG | -0.02
AGCCTCACGTGTGGGT | 0.18
TGGCACACGTGTCGGT | -0.02
AGTTACACGTGTTGAT | 0.09
CATATCACGTGAGGTG | 0.29
GTTGGCACGTGAGCCG | 0.36
TACAACACGTGTGTTT | 0.05
GTAGGCACGTGGGGAG | -0.3
GTCTTCACGTGCTTTT | 0.35
TTTTTCACGTGCAAGG | 0.28
GGATACACGTGGGGCA | 0.09
GCTGACACGTGGGAGT | -0.06
GGGGACACGTGATTAT | 0.12
TTTGACACGTGTGCCT | -0.03
ATCGTCACGTGTGTGC | 0.06
GGAGGCACGTGGCTAT | -0.19
ATATTCACGTGAGGAA | 0.16
CGAGGCACGTGGTTGA | -0.3
TTTGGCACGTGATGGT | 0.04
GGAATCACGTGGTCTT | 0.21
TTTATCACGTGTATAC | -0.01
TACTTCACGTGGGTCT | 0.32

Sequence | relative binding free energy [kcal/mol]
CTTTGCACGTGAGAGT | 0.26
TATTCCACGTGGAGGT | -0.14
GCGGACACGTGTGGTT | 0.1
GTGTTCACGTGAAGCT | 0.28
TGCGGCACGTGTGCGG | -0.04
TGGGGCACGTGAGAGG | 0.14
CGTATCACGTGTGTAA | 0.14
CTGTGCACGTGGGGAT | -0.21
GAATGCACGTGATTGA | 0.27
GTACTCACGTGCTTGG | 0.31
AAGCCCACGTGGGGGG | -0.28
TGGTGCACGTGTCTAT | -0.01
GTTATCACGTGTTTGT | 0.2
GCGCGCACGTGTGTGG | -0.11
CATCGCACGTGTGGTT | 0.07
GTAAACACGTGTTGGC | -0.02
GTGATCACGTGAATGA | 0.34
TTAGTCACGTGGATAT | 0.06
TGGGTCACGTGGACAT | 0.15
GGGAACACGTGTGCTT | 0.24
TGAAGCACGTGGACGT | 0.01
TGGCTCACGTGGTCTG | 0.02
GTTCGCACGTGAATGT | 0.24

Sequence | relative binding free energy [kcal/mol]
TTGATCACGTGATAAG | 0.36
AGCTTCACGTGATGTT | 0.21
TAGTACACGTGTTTCG | 0.14
TTAGGCACGTGAGGGT | 0.14
CGATTCACGTGGGGGC | 0.42
AGATTCACGTGGCGGA | 0.26
GGGGGCACGTGTTCAT | -0.14
GGAGGCACGTGGCTTG | -0.17
CGGTTCACGTGAGTGC | 0.24
GTAGACACGTGTGTTT | 0
TGATTCACGTGTTGTG | 0.28
TGTGGCACGTGTTTGA | -0.04
CTTATCACGTGAGTTT | 0.25
GTTGACACGTGGGAGG | 0.05
GTAAACACGTGTAGGG | 0.03
TGTGTCACGTGCTTTT | -0.01
CTGATCACGTGTGTGT | 0.1
GATGGCACGTGTGGCT | 0.09
TTAATCACGTGATGTG | 0.07
CTAGGCACGTGGAGCG | -0.12
CTGTACACGTGATGGG | 0.19
GTTTGCACGTGGCAGA | 0.1
CATGGCACGTGGCGGT | -0.16
